Source: PubChem BioAssay (NCATS)
Inconclusive results, whose numbers are uncertain, are shown with a selection of clear calls. For part of these data: No potency is given beside an inconclusive call; the fits are too rough. The source made the active and inactive calls. The call rests on the fitted dose curve; in most records, active means well fitted curve in the direction sought with a large enough effect; inconclusive means small, poorly fitted or top-dose-only effect, or another doubt; inactive means no such curve, though single readings can be large; an effect the other way counts as inactive or inconclusive.

Legend:
[1] = test system: Zika virus NS2B-NS3 protease (linked construct); test: Primary screen NINDS Rhodamine qHTS for Zika virus inhibitors (AID 1347160); conditions: activity change, negative = inhibition: at 57.1 µM (top of the series) unless noted; further: potency means the concentration at half of the fitted maximal effect; nearly all actives have a fitted effect of over 55% in size
Method in brief: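 Kinetic fluorescence (Ex 480 nm, Em 540 nm) over 15 min with 1.5 microM Rhodamine110 peptide and 25 nM linked protease.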

[2] = Primary qHTS for inhibitors of nuclear receptor binding SET domain protein 2 (NSD2) in an isogenic RCH-ACV NSD2 p.E1099K mutant (9B) (AID 1645876); further: on the % scale 0 is the no-effect control and ±100 the full control effect; nearly all actives have a fitted effect of over 70% in size
[3] = Primary qHTS for inhibitors of nuclear receptor binding SET domain protein 2 (NSD2) in an RCH-ACV wild type WT cells (2C) (AID 1645877); conditions: activity change, negative = cell killing: at 44.9 µM (top of the series) unless noted; further: nearly all actives have a fitted effect of over 70% in size; further: potency means the concentration at half of the fitted maximal effect
[4] = target: Phospholipid hydroperoxide glutathione peroxidase GPX4 (Homo sapiens) (UniProt P36969); test: Primary qHTS Assay for Inhibitors of Recombinant Selenoprotein Glutathione Peroxidase 4 (GPX4) (AID 1845192); further: potency means the concentration at half of the fitted maximal effect; nearly all actives have a fitted effect of over 65% in size
Sequence of UniProt P36969 (P36969 whole entry, looked up): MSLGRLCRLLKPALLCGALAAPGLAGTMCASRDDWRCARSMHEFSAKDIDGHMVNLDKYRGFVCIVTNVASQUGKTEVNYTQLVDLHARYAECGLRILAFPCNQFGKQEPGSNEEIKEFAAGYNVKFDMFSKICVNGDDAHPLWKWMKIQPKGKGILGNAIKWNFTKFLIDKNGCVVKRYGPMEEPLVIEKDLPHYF
Method in brief: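 GR-coupled readout: 100 nM GR, 1 mM GSH, 0.5 mM NADPH; NADPH fluorescence (ex 340/em 450 nm) read at t=0 and after 15 min RT. GPX4 200 nM, preincubated 30 min with compound; substrate 0.5 mM CHP.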

[5] = target: Luciferin 4-monooxygenase (Photinus pyralis) (UniProt P08659); test: Primary firefly luciferase (FLuc) qHTS assay for identification of artifact compounds. (AID 1845220); further: potency means the concentration at half of the fitted maximal effect; nearly all actives have a fitted effect of over 60% in size
Method in brief: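 In this counter-screen for luciferase artifacts, test compounds met substrate (10 uM each luciferin and ATP) before 10 nM enzyme started the reaction. Light output was measured 5 min later.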

[6] = Primary fluorescence-based thiol-reactive (MSTI) qHTS assay for identification of artifact compounds. (AID 1845221);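 further: potency means the concentration at half of the fitted maximal effect; thiol-reactive compounds lower the probe fluorescence signal; nearly all actives have a fitted effect of over 65% in size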
Method in brief: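 Compounds were incubated 1 h at room temperature in the dark with the MSTI probe (4 uM) in PBS pH 7.4, 2% DMSO. Signals were normalized between Acetyl-MSTI and MSTI.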

[7] = Primary redox qHTS assay for identification of artifact compounds. (AID 1845223); conditions: Amplex Red/HRP redox cycling with DTT, fluorescence; redox activity (% of DA3003): at 53.8 µM (top of the series); further: potency means the concentration at half of the fitted maximal effect
Method in brief: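 Amplex Red (25 uM) and HRP (250 mU/mL) in HBSS, with compounds for 15 min, then 250 uM DTT for 30 min, room temperature, dark. Fluorescence 525/598 nm read; normalized to DMSO and 10 uM DA3003; Hill fit.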

[8] = test system: CRL-7250; test: Cytotoxic Profiling of Annotated Libraries Using Quantitative High-Throughput Screening (AID 1296008); conditions: Five cell lines viability, CellTiter-Glo ATP luminescence, 48-72 h; max response: stronger effect = lower value; further: nearly all actives have a fitted effect of over 60% in size; further: potency means the concentration at half of the fitted maximal effect; on max response: on the % scale 0 is the no-effect control and ±100 the full control effect
Method in brief: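 Compounds were pin-transferred onto cells and incubated 48 or 72 hr at 37 degree Celsius, 95% humidity. CellTiter-Glo was added, plates sat 10 min at room temperature, then ATP-coupled luminescence was imaged as the viability read-out.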

[9] = test system: HeLa; test: Primary qHTS to identify gynecologic anti-cancer compounds using libraries of approved drugs and bioactive compounds (AID 1345084); conditions: Gynecologic cancer cell panel viability, ATPlite luminescence, 48 h; activity change, negative = cytotoxicity: at 57.5 µM (top of the series); further: nearly all actives have a fitted effect of over 55% in size; further: potency means the concentration at half of the fitted maximal effect; on activity change, negative = cytotoxicity: on the % scale 0 is the no-effect control and ±100 the full control effect
Method in brief: (§1)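 Luminescence from the ATPlite ATP-monitoring reagent indicates viable cell number; lower signal means cytotoxicity. Cells received compound 16 h after seeding and were exposed for 48 h across five concentrations.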

[10] = test system: OV90; test: as above; conditions: Gynecologic cancer cell panel viability, ATPlite luminescence, 48 h; series mostly up to 57.5 µM
Method in brief: as §1

[11] = test system: PA-1; test: as above; conditions: Gynecologic cancer cell panel viability, ATPlite luminescence, 48 h; series mostly up to 57.5 µM
Method in brief: as §1

[12] = qHTS Assay for Identifying Gametocytocidal Compounds (AID 743244);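 further: on the % scale 0 is the no-effect control and ±100 the full control effect; actives lower the fluorescent signal which means gametocytes are killed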; conditions: P. falciparum 3D7 stage III-V gametocytes, alamarBlue, 72 h; max response: stronger effect = lower value
Method in brief: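 Compounds are pinned into medium, gametocytes (stage III–V, 3D7, 20,000 cells/well) added, and plates held 72 h at 37 °C in 5% CO2. AlamarBlue follows for 24 h before fluorescence reading.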

[13] = NS1 protein of Zika virus - qHTS assay to identify small molecule inhibitors in human HEK 293 cells (AID 1347053);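 further: plate controls were infected untreated cells for no effect and uninfected cells for full effect; nearly all actives have a fitted effect of over 55% in size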
Method in brief: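 Following 20 h seeding, HEK 293 cells took compound, then 1 h later ZIKV MR766 (MOI = 0.5). Incubation ran 24 h at 37 C before TR-FRET detection of NS1; a drop in signal indicates inhibition.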

[14] = qHTS of pediatric cancer cell lines to identify multiple opportunities for drug repurposing: Primary screen for BT-12 cells (AID 1347101);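 further: plate controls were DMSO for no effect and bortezomib positive control for full effect; nearly all actives have a fitted effect of over 25% in size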
Method in brief: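 Cells (500-1,000/well) rested 5 h, then received compounds for 48 h; metabolically active cells were measured by CellTiter-Glo luminescence. Final concentrations spanned up to 46 µM (MIPE, 11-point) or 0.59 nM-46 µM (NPC, 8-point) in primary screens, 11-point in follow-ups.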

[15] = Primary qHTS for small molecule stabilizers of the endoplasmic reticulum resident proteome: Secreted ER Calcium Modulated Protein (SERCaMP) assay (AID 1508630); conditions: SH-SY5Y GLuc-SERCaMP (Gaussia luciferase released on ER calcium loss) secretion, thapsigargin, luminescence; activity change, negative = inhibition: at 38.4 µM (top of the series) unless noted; further: potency means the concentration at half of the fitted maximal effect
Method in brief: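 GLuc-SERCaMP-expressing SH-SY5Y cells, pretreated 16 h with compound, are challenged with thapsigargin to empty ER calcium stores; after 4 h, coelenterazine is added directly to the medium and luminescence is imaged.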

[16] = target: Glutathione peroxidase 1 (Homo sapiens) (UniProt P07203); test: Primary qHTS Assay for Inhibitors of Recombinant Selenoprotein Glutathione Peroxidase 1 (GPX1) (AID 1845191); conditions: activity, negative = inhibition: at 48.8 µM (top of the series); further: on the % scale 0 is the no-effect control and ±100 the full control effect; nearly all actives have a fitted effect of over 65% in size
Sequence of UniProt P07203 (P07203 whole entry, looked up): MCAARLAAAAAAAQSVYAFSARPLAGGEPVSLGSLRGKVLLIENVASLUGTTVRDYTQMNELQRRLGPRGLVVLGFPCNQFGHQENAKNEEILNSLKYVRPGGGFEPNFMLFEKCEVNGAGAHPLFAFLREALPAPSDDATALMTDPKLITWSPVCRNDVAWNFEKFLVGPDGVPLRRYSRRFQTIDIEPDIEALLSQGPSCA
Method in brief: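 Recombinant GPX1 (10 nM final) was preincubated with compound for 30 min at room temperature, then reacted with 1 mM GSH, 0.5 mM CHP, 0.5 mM NADPH and 100 nM glutathione reductase; NADPH fluorescence (340/450 nm) was read at 0 and 15 min.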

[17] = test system: CASKI; test: Primary qHTS to identify gynecologic anti-cancer compounds using libraries of approved drugs and bioactive compounds (AID 1345084); conditions: Gynecologic cancer cell panel viability, ATPlite luminescence, 48 h; series mostly up to 57.5 µM; further: nearly all actives have a fitted effect of over 55% in size; further: potency means the concentration at half of the fitted maximal effect; on activity change, negative = cytotoxicity: on the % scale 0 is the no-effect control and ±100 the full control effect
Method in brief: as §1

[18] = test system: SKOV3; test: as above; conditions: Gynecologic cancer cell panel viability, ATPlite luminescence, 48 h; series mostly up to 57.5 µM
Method in brief: as §1

[19] = test system: Hek293T; test: as above; conditions: Gynecologic cancer cell panel viability, ATPlite luminescence, 48 h, control line for the selectivity index; activity change, negative = cytotoxicity: at 57.5 µM (top of the series) unless noted
Method in brief: as §1
Tags describe the fitted curve by direction and shape.

In the case of `CCC(C)/C=C(C)/C=C/c1cc2c(cn1)C(=O)C(C)(OC(C)=O)C(O)=C2Cl` (centres undefined), the Potency [1] is reported as inconclusive [inhibitor, full curve], the Potency [2] is reported as “inactive” and the Potency [3] is reported as inconclusive [inhibitor, partial curve, poor fit]. For the same compound, the Potency [4] was inconclusive [inhibitor, single point], the Potency [5] was inconclusive [inhibitor, single point] and the Potency [6] was active: 0.736 µM. For the same compound, the Potency [7] was inconclusive [activator, partial curve, poor fit], the Potency [8] was inconclusive [inhibitor, single point] and the Potency [9] was “inactive”. For the same compound, the Potency [10] was inconclusive [cytotoxic, partial curve, poor fit] and the Potency [11] was “inactive”.
With `CC(C)NC[C@@H](O)COc1ccc(CC(N)=O)cc1` the max response [12] was inactive: 23.6%, the Potency [13] was “inactive” and the Potency [14] was “inactive”. For the same compound, the Potency [15] was inconclusive [inhibitor, full curve, poor fit], the Potency [2] was “inactive” and the Potency [3] was “inactive”. For the same compound, the Potency [16] was “inactive”, the max response [8] was inactive: -2.68% and the Potency [17] was “inactive”. For the same compound, the Potency [18] was inconclusive [rising, single point].
For `COC(=O)C1=CO[C@@H](O[C@@H]2O[C@H](CO)[C@@H](O)[C@H](O)[C@H]2O)[C@@H]2[C@@](C)(O)[C@@H](OC(=O)/C=C/c3ccc(O)cc3)C[C@]12O`, the Potency [8] was inconclusive [inhibitor, single point], the Potency [19] was “inactive” and the Potency [10] was “inactive”.
